# Experimental data as given in the supplement of paper PMC6451100.
# The other results are listed elsewhere or left out. These are enrichments in a pooled selection; single values are uncertain.
# System: Drosophila AGO1 (endogenous, S2-R+ lysate)
# Experiment: AGO1 loading enrichment factor (IP read count / input read count, not library-size normalised) (ratio); higher = more efficient loading into AGO1
# Settings: randomized region: 5' 5N of miR-317 loop
# Description: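 HISSA: 5'-phosphorylated, 32P-labelled 20-nt ssRNA oligos (miR-317 loop, first 5 nt randomized, constant 3' part TGAAATGCAAGCAAG as printed in methods; DNA letters for RNA) incubated 1 h at 25°C in S2-R+ cell lysate. Endogenous AGO1 was immunopurified with anti-AGO1 and bound oligos were sequenced after splinted ligation.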
# 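Further: S2-R+ lysate came from cells stably expressing FLAG-tagged AGO2, enrichment per 5N variant computed with FASTAptamer, reads lacking the constant 3′ segment discarded.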
row,Sequence,AGO1 loading enrichment factor
1,CTGGATGAAATGCAAGCAAG,0.155
2,GGGCCTGAAATGCAAGCAAG,0.259
3,CGTCATGAAATGCAAGCAAG,0.0869
4,CTGCATGAAATGCAAGCAAG,0.0284
5,GCAAATGAAATGCAAGCAAG,0.0677
6,GGTATTGAAATGCAAGCAAG,0.0436
7,CCTTCTGAAATGCAAGCAAG,0.0703
8,CTTAATGAAATGCAAGCAAG,0.0452
9,GTCTATGAAATGCAAGCAAG,0.0855
10,GTTCCTGAAATGCAAGCAAG,0.31
11,GGGGTTGAAATGCAAGCAAG,1.91
12,CACATTGAAATGCAAGCAAG,0.122
13,AATTGTGAAATGCAAGCAAG,0.143
14,ACAAATGAAATGCAAGCAAG,0.222
15,GTGCATGAAATGCAAGCAAG,0.0762
16,CTAGGTGAAATGCAAGCAAG,0.0479
17,CTCCATGAAATGCAAGCAAG,0.0481
18,CGAGATGAAATGCAAGCAAG,0.172
19,ATGTTTGAAATGCAAGCAAG,0.0719
20,ATCATTGAAATGCAAGCAAG,0.177
21,GAGAGTGAAATGCAAGCAAG,0.243
22,TTTTATGAAATGCAAGCAAG,0.32
23,ATAGGTGAAATGCAAGCAAG,0.139
24,TGCCTTGAAATGCAAGCAAG,0.0619
25,AGCGATGAAATGCAAGCAAG,0.625

row,Sequence,AGO1 loading enrichment factor
1,TTACTTGAAATGCAAGCAAG,0.555
2,TAGGTTGAAATGCAAGCAAG,0.232
3,CTCAGTGAAATGCAAGCAAG,0.0419
4,CTACATGAAATGCAAGCAAG,0.0801
5,ACGTCTGAAATGCAAGCAAG,0.246
6,CCAAATGAAATGCAAGCAAG,0.173
7,GTCGTTGAAATGCAAGCAAG,0.122
8,TAAATTGAAATGCAAGCAAG,0.399
9,GGACCTGAAATGCAAGCAAG,0.707
10,TAAAGTGAAATGCAAGCAAG,0.413
11,GGACGTGAAATGCAAGCAAG,20.6
12,CAGTGTGAAATGCAAGCAAG,0.164
13,TAGGCTGAAATGCAAGCAAG,0.125
14,AGCAATGAAATGCAAGCAAG,0.0858
15,CGCCTTGAAATGCAAGCAAG,0.00535
16,CTAGCTGAAATGCAAGCAAG,0.00455
17,CAGCATGAAATGCAAGCAAG,0.0947
18,CAAGGTGAAATGCAAGCAAG,0.078
19,ACTACTGAAATGCAAGCAAG,0.282
20,TCTCTTGAAATGCAAGCAAG,0.129
21,ACGAATGAAATGCAAGCAAG,0.19
22,CGGGGTGAAATGCAAGCAAG,1.49
23,CACTCTGAAATGCAAGCAAG,0.0428
24,CAGCCTGAAATGCAAGCAAG,0.0491
25,TTTCTTGAAATGCAAGCAAG,1

row,Sequence,AGO1 loading enrichment factor
1,GCGGATGAAATGCAAGCAAG,2.08
2,TAACCTGAAATGCAAGCAAG,0.525
3,ACTTCTGAAATGCAAGCAAG,0.118
4,GGAATTGAAATGCAAGCAAG,0.115
5,AAAGATGAAATGCAAGCAAG,0.143
6,CACCCTGAAATGCAAGCAAG,0.235
7,CCCAGTGAAATGCAAGCAAG,0.0884
8,TGAAGTGAAATGCAAGCAAG,0.151
9,CACTATGAAATGCAAGCAAG,0.113
10,TTGTGTGAAATGCAAGCAAG,0.0979
11,TAATGTGAAATGCAAGCAAG,0.254
12,CGTATTGAAATGCAAGCAAG,0.0607
13,CGACGTGAAATGCAAGCAAG,5.15
14,TCCAGTGAAATGCAAGCAAG,0.434
15,TCCCATGAAATGCAAGCAAG,0.859
16,CAAACTGAAATGCAAGCAAG,0.0817
17,GATGATGAAATGCAAGCAAG,0.391
18,TTATGTGAAATGCAAGCAAG,0.241
19,GAAAATGAAATGCAAGCAAG,0.116
20,ATTTCTGAAATGCAAGCAAG,0.0822
21,AACCGTGAAATGCAAGCAAG,0.489
22,TCCGATGAAATGCAAGCAAG,0.25
23,TGTCGTGAAATGCAAGCAAG,0.111
24,ATTCATGAAATGCAAGCAAG,0.416
25,TATTTTGAAATGCAAGCAAG,0.355

row,Sequence,AGO1 loading enrichment factor
1,CTCGGTGAAATGCAAGCAAG,0.0759
2,CCTCGTGAAATGCAAGCAAG,0.242
3,GCTGTTGAAATGCAAGCAAG,0.06
4,TAAAATGAAATGCAAGCAAG,0.387
5,TGTCCTGAAATGCAAGCAAG,0.226
6,GTGTCTGAAATGCAAGCAAG,0.122
7,AGCGGTGAAATGCAAGCAAG,0.105
8,TCTATTGAAATGCAAGCAAG,0.434
9,TCATATGAAATGCAAGCAAG,0.247
10,AATTTTGAAATGCAAGCAAG,0.239
11,TGCTCTGAAATGCAAGCAAG,0.036
12,GCTCGTGAAATGCAAGCAAG,0.0121
13,TGTAATGAAATGCAAGCAAG,0.146
14,GCTAGTGAAATGCAAGCAAG,0.0298
15,CATCATGAAATGCAAGCAAG,0.317
16,GAACGTGAAATGCAAGCAAG,0.134
17,TGCCATGAAATGCAAGCAAG,0.237
18,TTTGTTGAAATGCAAGCAAG,1.2
19,TTCACTGAAATGCAAGCAAG,1
20,AACAATGAAATGCAAGCAAG,0.22
21,TGGGATGAAATGCAAGCAAG,1.09
22,AGTCTTGAAATGCAAGCAAG,0.00421
23,ACTAGTGAAATGCAAGCAAG,0.153
24,CGCTTTGAAATGCAAGCAAG,0.0194
25,GCTGATGAAATGCAAGCAAG,0.0728

row,Sequence,AGO1 loading enrichment factor
1,AACTATGAAATGCAAGCAAG,0.123
2,CCGACTGAAATGCAAGCAAG,0.818
3,TGCTTTGAAATGCAAGCAAG,0.012
4,AATGCTGAAATGCAAGCAAG,0.0411
5,CGACCTGAAATGCAAGCAAG,0.568
6,CTAACTGAAATGCAAGCAAG,0.079
7,GCACGTGAAATGCAAGCAAG,0.117
8,ATGGCTGAAATGCAAGCAAG,0.0472
9,TGTACTGAAATGCAAGCAAG,0.113
10,GTTGCTGAAATGCAAGCAAG,0.24
11,GTAGCTGAAATGCAAGCAAG,0.0419
12,CGTGGTGAAATGCAAGCAAG,0.18
13,AGAGGTGAAATGCAAGCAAG,0.444
14,GTTCTTGAAATGCAAGCAAG,0.00584
15,TTCCATGAAATGCAAGCAAG,0.306
16,TTAGATGAAATGCAAGCAAG,0.22
17,TAGGATGAAATGCAAGCAAG,0.351
18,TATGCTGAAATGCAAGCAAG,0.664
19,TGCCGTGAAATGCAAGCAAG,0.179
20,TGGAGTGAAATGCAAGCAAG,0.278
21,CGTTCTGAAATGCAAGCAAG,0.277
22,GGGACTGAAATGCAAGCAAG,0.981
23,AGCACTGAAATGCAAGCAAG,0.0754
24,GGCCCTGAAATGCAAGCAAG,0.111
25,TAGCGTGAAATGCAAGCAAG,0.296
